PubChem BioAssay AID2675 (National Center for Advancing Translational Sciences (NCATS), 2010)
About 100 (0.036%) of roughly 280,000 compounds were called active. The inconclusive results got no clear call from the source; some entries with a clear call stand among them for comparison. The call rests on the fitted dose curve; in most records, active means well fitted inhibition curve with a large enough effect in the signal ratio, with a control signal flat (not every such curve was filed as active); inconclusive means small, poorly fitted or top-dose-only effect, or effect the other way, or a change in a side signal; inactive means no such curve, though single readings can be large or run the other way; the % refers to the signal ratio. A potency beside an inconclusive call is a rough fit, not a confirmed value. A note “side channel” means that the fit belongs to a control or component signal, not to the main read-out.

These compounds were tested against Muscleblind-like protein 1 (Homo sapiens) (UniProt Q9NR56) (assay: qHTS Assay for Inhibitors of MBNL1-poly(CUG) RNA binding). Settings: TR-FRET MBNL1-His/biotin-(CUG)12 binding, 665/545 ratio; series mostly up to 57.5 µM.
UniProt Q9NR56, sequence (Q9NR56 whole entry, looked up): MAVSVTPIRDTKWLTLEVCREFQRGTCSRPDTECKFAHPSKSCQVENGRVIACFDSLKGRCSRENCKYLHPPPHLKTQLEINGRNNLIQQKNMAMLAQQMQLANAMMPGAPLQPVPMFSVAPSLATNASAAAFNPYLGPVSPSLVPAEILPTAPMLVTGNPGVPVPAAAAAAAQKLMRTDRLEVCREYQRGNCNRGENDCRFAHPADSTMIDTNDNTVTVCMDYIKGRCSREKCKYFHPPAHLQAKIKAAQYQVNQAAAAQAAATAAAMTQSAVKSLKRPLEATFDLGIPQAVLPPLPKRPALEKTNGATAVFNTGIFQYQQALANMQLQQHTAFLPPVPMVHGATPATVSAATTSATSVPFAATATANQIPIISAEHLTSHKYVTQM
Summary of the method: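 TR-FRET readout: Ex 340 nm, 665/545 nm emission ratio, normalized to buffer-only (basal) and MBNL1-(CUG)12 controls. Complex of MBNL1-His with Biotin-(CUG)12, compounds 92 nM–58 uM, incubated 60 min at room temperature.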
Potency means the concentration at half of the fitted maximal effect; tags describe the fitted curve by direction and shape or compound fluorescence and quenching.

Row | Compound | Potency
1 | COC(=O)CSc1ncnc2c1cnn2Cc1ccccc1 | inactive
2 | O=C(Nc1cccc2ccccc12)c1cc2c(cc1Br)OCO2 | inconclusive: 39.8 µM [fluorescent, side channel, single point]
3 | CCOc1cc(C(=O)OCC(=O)c2c(N)n(C)c(=O)n(C)c2=O)cc(OCC)c1OCC | inactive
4 | CN1CCN(C(=O)c2cc([N+](=O)[O-])cc([N+](=O)[O-])c2)CC1 | inconclusive: 11.2 µM [quencher, side channel, partial curve]
5 | O=C(N/N=C/c1ccc(-c2cccc([N+](=O)[O-])c2)o1)[C@H]1C[C@@H]1c1ccccc1 | inactive
6 | COc1ccc(C(=O)c2coc3c2C(=O)C(=O)c2ccccc2-3)cc1 | inconclusive: 12.6 µM [quencher, side channel, partial curve]
7 | Cc1ccc(S(=O)(=O)N(C)CCCC(=O)Nc2cc(C)ccc2C)cc1 | inconclusive: 0.355 µM [inhibitor, full curve, poor fit]
8 | C/C(CC(=O)NCc1ccco1)=N\NC(=O)c1ccc([N+](=O)[O-])cc1Cl | inconclusive: 15.8 µM [quencher, side channel, partial curve]
9 | Cn1cccc1/C=N/n1c(-c2ccc(C(C)(C)C)cc2)n[nH]c1=S | inactive
10 | O=C1c2cccc3cccc(c23)C(=O)N1c1nccs1 | inconclusive: 2.51 µM [quencher, side channel, full curve]
11 | COc1cc(O)c(C(CC(=O)N2CCCC(C)C2)c2cc(OC)c(OC)c(OC)c2)c(OC)c1 (stereo not drawn) | inactive
12 | CCOC(=O)/C=C1\NC(C)(C)Cc2cc(OC)c(O)cc21 | inconclusive: 17.8 µM [quencher, side channel, partial curve, poor fit]
13 | O=C(/C=C/c1ccc(Br)cc1)NC(=S)Nc1ccc(S(=O)(=O)Nc2nccs2)cc1 | inactive
14 | COc1ccc2oc(-c3ccc(NC(=O)c4ccc(N5CCOCC5)c([N+](=O)[O-])c4)cc3)nc2c1 | inconclusive: 35.5 µM [fluorescent, side channel, partial curve, poor fit]
15 | COCCNC(=S)Nc1ccccc1[N+](=O)[O-] | inconclusive: 28.2 µM [quencher, single point]
16 | COc1cc([N+](=O)[O-])c(OC)cc1SCc1n[nH]c(=S)n1-c1ccc(F)cc1 | inconclusive: 14.1 µM [quencher, side channel, partial curve]
17 | O=C1C=C(NCCN2CCOCC2)C(=O)c2cnccc21 | inconclusive: 11.2 µM [quencher, side channel, partial curve]
18 | N#Cc1cc2c(nc1SCc1ccccc1)CCC2 | inconclusive: 35.5 µM [fluorescent, side channel, partial curve]
19 | CCOC(=O)CC(=O)CSc1nc2c(c(C)c1C#N)CCC2 | inconclusive: 28.2 µM [quencher, side channel, single point]
20 | O=C(NCCCc1ccccc1)Nc1cccc(Cl)c1 | inconclusive: 0.0891 µM [fluorescent, side channel, full curve]

Row | Compound | Potency
21 | CCc1ccc(/C=C2\SC(=S)N(CCC(=O)NCCCN3CCOCC3)C2=O)cc1 | inconclusive: 3.16 µM [quencher, side channel, full curve]
22 | Cc1cccc(/C=N/NC(=O)c2ccc3c(c2)OCCO3)c1O | inconclusive: 35.5 µM [quencher, side channel, single point]
23 | Cc1ccsc1/C=C1\SC(N2CCOCC2)=NC1=O | inconclusive: 12.6 µM [quencher, side channel, partial curve]
24 | CC1(C)CC(=O)C2=C(C1)OC1=C(C(=O)CC(C)(C)C1)C2c1cc([N+](=O)[O-])cc([N+](=O)[O-])c1O | inconclusive: 39.8 µM [quencher, side channel, partial curve, poor fit]
25 | COc1ccc(C(=O)NCc2c(CC(C)C)oc(C)c2C(=O)O)cc1 | inconclusive: 2.51 µM [quencher, side channel, single point]
26 | CCC1=NN2C(=N)/C(=C\c3cccn3-c3ccc(OC)cc3)C(=O)N=C2S1 | inconclusive: 22.4 µM [quencher, side channel, partial curve]
27 | Cc1cc(C)n(CC(C)C(=O)O)n1 (stereo not drawn) | inconclusive: 8.91 µM [fluorescent, side channel, single point]
28 | COc1ccc(-c2ccc(C(=O)O)o2)c([N+](=O)[O-])c1 | inconclusive: 22.4 µM [quencher, side channel, partial curve]
29 | O=C1CCCC2=C1C(c1ccccc1)C1C(=O)c3ccccc3C1=N2 (stereo not drawn) | inconclusive: 1.58 µM [quencher, side channel, full curve]
30 | COCc1c(C(=O)N/N=C/c2ccc(C)o2)nnn1-c1nonc1N | inconclusive: 17.8 µM [quencher, side channel, partial curve]
31 | O=C(NNC(=S)NC(=O)c1ccccc1Cl)c1cccc([N+](=O)[O-])c1 | inconclusive: 31.6 µM [quencher, side channel, partial curve]
32 | COCC1CCCN(Cc2cn(-c3ccccc3F)nc2-c2cc(C)sc2C)C1 (stereo not drawn) | inactive
33 | CCc1cccc(NC(=O)CCNS(=O)(=O)c2cccc3nonc23)c1 | inconclusive: 17.8 µM [quencher, side channel, partial curve]
34 | COC(=O)c1ccccc1NC(=O)C1CCN(C(=O)Cc2ccccc2)CC1 | inconclusive: 28.2 µM [quencher, side channel, single point]
35 | Nc1ccc(O)c2c(=O)cc(-c3ccccc3Cl)oc12 | inconclusive: 1.78 µM [quencher, side channel, full curve]
36 | O=C(CN1C(=O)/C(=C\c2ccco2)SC1=S)Nc1ccc(O)cc1C(=O)O | inconclusive: 10 µM [quencher, side channel, partial curve]
37 | NC(=O)c1oc2ccc(Cl)cc2c1N | inconclusive: 15.8 µM [quencher, side channel, partial curve]
38 | CN1CCS/C1=C/C=C1\SC(=S)N(CC(=O)O)C1=O | inconclusive: 11.2 µM [quencher, side channel, partial curve]
39 | Cc1ccc(C)c(NC(=S)NCc2ccc3[nH]c4c(c3c2)CCCC4)c1 | inactive
40 | COC(CNC(=O)c1cc(-c2ccncc2)nc2ccc(S(=O)(=O)N3CCOCC3)cc12)OC | inconclusive: 15.8 µM [quencher, side channel, partial curve]

Row | Compound | Potency
41 | COc1ccc(NC(=O)CSc2nnc(NC(C)=O)s2)c([N+](=O)[O-])c1 | inconclusive: 4.47 µM [quencher, side channel, single point]
42 | CCOc1cc([N+](=O)[O-])cc(/C=C2/NC(=O)N(Cc3ccccc3F)C2=O)c1O | inconclusive: 11.2 µM [quencher, side channel, partial curve]
43 | COc1ccccc1CNC(=S)NC1CCCC1 | inconclusive: 14.1 µM [fluorescent, side channel, partial curve]
44 | Cc1cccnc1NC(=O)c1c(O)c2cccc3c2n(c1=O)CCC3 | inconclusive: 4.47 µM [fluorescent, side channel, single point]
45 | COc1ccc(N2CCN(CCC3Oc4cc([N+](=O)[O-])ccc4NC3=O)CC2)cc1 (stereo not drawn) | inconclusive: 12.6 µM [quencher, side channel, partial curve]
46 | COCCNC(C(=O)Nc1ccc([N+](=O)[O-])cc1Br)c1ccccc1 (stereo not drawn) | inconclusive: 22.4 µM [quencher, partial curve, poor fit]
47 | CC1CC(=O)C2=C(C1)OC(N)=C(C#N)C2c1coc2ccccc2c1=O (stereo not drawn) | inactive
48 | O=C(C[n+]1cc(Br)cc2ccccc21)c1ccc(Br)cc1 | inconclusive: 22.4 µM [quencher, side channel, partial curve]
49 | CCSC1=C(C#N)C(=O)n2c1cc1c2CCCC1 | inconclusive: 28.2 µM [quencher, side channel, single point]
50 | S=C(NCC1CCCO1)NC1CCCC1 (stereo not drawn) | inactive
51 | CC(O)C(NS(=O)(=O)c1ccc(Cl)cc1)C(=O)OCC(=O)N1CCN(c2ccccc2)CC1 (stereo not drawn) | inconclusive: 31.6 µM [fluorescent, side channel, partial curve, poor fit]
52 | O=C(NCC(=O)N(Cc1ccccc1)C(C(=O)NC1CCCC1)c1ccncc1)c1ccco1 (stereo not drawn) | inconclusive: 0.562 µM [quencher, side channel, full curve, poor fit]
53 | COC(CNS(=O)(=O)c1ccc(S(=O)(=O)NC2CC2)cc1)OC | inactive
54 | CN(C)c1ccc(C(=O)Nc2ccc(S(=O)(=O)Nc3nccs3)cc2)cc1 | inconclusive: 25.1 µM [fluorescent, side channel, single point]
55 | O=[N+]([O-])c1cccc(/C=C/c2nc3ccc([N+](=O)[O-])cc3[nH]2)c1 | inconclusive: 2.82 µM [quencher, side channel, full curve, poor fit]
56 | CCOC(=O)c1cc2c(=O)[nH]c(C(Cl)(Cl)Cl)nc2o1 | inconclusive: 28.2 µM [quencher, side channel, single point]
57 | CC(C)Cc1nn2c(=O)cc(COc3ccc(NC(=O)c4ccco4)cc3)nc2s1 | inactive
58 | COc1ccccc1C(=O)C1CCCN(C(=O)c2cn3cc(Cl)ccc3n2)C1 (stereo not drawn) | inconclusive: 12.6 µM [inhibitor, single point]
